From PubChem BioAssay AID360 (National Center for Advancing Translational Sciences (NCATS), 2006)
Out of some 48,000 compounds screened, about 550 (1.1%) were called active. Inconclusive results (about 4%) are left out. No stated cut-off is given here; in the data, active means potency below about 15 µM; inconclusive means mostly about 16 µM to 33 µM; inactive means weaker than that. The list shows a part of the results.
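Further: the screen sought inhibitors.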
Potency means the concentration at half of the fitted maximal effect.

These compounds were tested against Lysosomal acid glucosylceramidase (Homo sapiens) (UniProt P04062) (assay: Glucocerebrosidase). Conditions: purified enzyme, resorufin glucoside fluorescence (screen aimed at inhibitors), 20 min.
UniProt P04062, sequence (P04062 whole entry, looked up): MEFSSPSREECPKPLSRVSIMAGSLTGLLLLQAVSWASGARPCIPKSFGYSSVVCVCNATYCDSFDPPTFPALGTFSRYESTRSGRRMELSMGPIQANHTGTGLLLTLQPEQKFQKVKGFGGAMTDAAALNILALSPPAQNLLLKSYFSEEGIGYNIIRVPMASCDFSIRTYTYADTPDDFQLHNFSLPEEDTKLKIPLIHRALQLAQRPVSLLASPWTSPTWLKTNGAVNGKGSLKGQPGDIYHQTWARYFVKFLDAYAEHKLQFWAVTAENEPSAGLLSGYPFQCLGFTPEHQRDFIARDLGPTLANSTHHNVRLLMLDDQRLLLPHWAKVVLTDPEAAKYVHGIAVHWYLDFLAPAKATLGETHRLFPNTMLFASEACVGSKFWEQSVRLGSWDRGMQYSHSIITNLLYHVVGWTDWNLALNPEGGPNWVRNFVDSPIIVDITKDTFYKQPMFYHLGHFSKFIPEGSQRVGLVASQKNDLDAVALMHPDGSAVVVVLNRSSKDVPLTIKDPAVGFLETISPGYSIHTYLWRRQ
Outline: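 Normal human glucocerebrosidase (0.2 nM final) was assayed with resorufin β-D-glucopyranoside (30 uM final) in 50mM citric acid/KH2PO4, 10mM sodium taurocholate, 0.01% tween-20, pH 5.9. Compounds were titrated; fluorescence (Ex 548, Em 600) read after 20 min at RT.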
With `COc1cccc(C(=O)CSc2nc3ccccc3n2CC(=O)N2CCOCC2)c1` the Potency was inactive: > 76.9 µM.
`CCOC(=O)c1c(NC(=O)CN2CCN(c3ccccn3)CC2)sc2c1CCCC2` was tested, and the Potency was inactive: > 76.9 µM.
In the case of `CCOc1ccc(-c2cc(CCCC(=O)NCCCOC)no2)cc1`, the Potency is reported as inactive: > 76.9 µM.
For `NC(=O)C1(N2CCCCC2)CCN(C(=O)CSc2nc3ccccc3s2)CC1`, the Potency was inactive: > 76.9 µM.
In the case of `CCN1CCCC1CNC(=O)c1cn(CC)c2ccc(S(=O)(=O)N3CCCCCC3)cc2c1=O` (configuration not stated), the Potency is reported as inactive: > 76.9 µM.
For `CC(C)(C)OC(=O)N1CCNc2ccccc2C1`, the Potency was inactive: > 76.9 µM.
In the case of `CSc1nnc(-c2ccc(F)cc2)o1`, the Potency is reported as inactive: > 76.9 µM.
`CCOC(=O)COc1ccc2c(c1)C(=O)CC(C)(C)O2` was tested, and the Potency was inactive: > 76.9 µM.
In the case of `COc1ccccc1OCC(=O)NCc1ccco1`, the Potency is reported as inactive: > 76.9 µM.
For `COc1ccc(OC)c(NC(=O)CSc2nnnn2-c2ccc3c(c2)OCO3)c1`, the Potency was inactive: > 76.9 µM.
`CS(=O)(=O)N(CC(N)=O)c1ccc2c(c1)OCO2` was tested, and the Potency was inactive: > 76.9 µM.
With `COc1ccc(-n2ncc3c(=O)n(CC(=O)OCc4ccccc4)cnc32)cc1` the Potency was inactive: > 76.9 µM.
In the case of `CCC1(C)CC(c2csc(N)n2)CCO1` (configuration not stated), the Potency is reported as inactive: > 76.9 µM.
In the case of `Cc1cccc(C(=O)Nc2ccc(CC(=O)O)cc2)c1`, the Potency is reported as inactive: > 76.9 µM.
For `CC(=O)Nc1nc(COc2ccccc2)cs1`, the Potency was inactive: > 76.9 µM.
`Cn1c(SCC(=O)C(C)(C)C)nnc1-c1cccnc1` was tested, and the Potency was inactive: > 76.9 µM.
For `O=C(CN1CCOCC1)NCCNC(=O)CN1CCOCC1`, the Potency was inactive: > 76.9 µM.
With `COc1ccc(CCNC(=O)c2ccc(NS(=O)(=O)c3c(C)noc3C)cc2)cc1OC` the Potency was “inactive”.
In the case of `COc1nc(-c2ccccc2)ccc1-c1noc(-c2ccccc2)n1`, the Potency is reported as inactive: > 76.9 µM.
With `COCCn1cc(C(=O)NCCCN2CCC(C)CC2)c2c3ccccc3n(C)c2c1=O` the Potency was inactive: > 76.9 µM.
For `Cc1cccc(C)c1OCc1nnc2c3cnn(C)c3ncn12`, the Potency was inactive: > 76.9 µM.
With `COc1ccc(N(Cc2cc3cc(OC)ccc3[nH]c2=O)S(C)(=O)=O)cc1` the Potency was inactive: > 76.9 µM.
In the case of `CCN(CC)S(=O)(=O)c1ccc(-c2nnc(SCC(=O)N3c4ccccc4CC3C)o2)cc1` (configuration not stated), the Potency is reported as inactive: > 76.9 µM.
`O=C(CCCn1c(=O)c2ccccc2n(Cc2ccccc2)c1=O)NCc1ccco1` was tested, and the Potency was inactive: > 76.9 µM.
For `COc1nonc1NCn1nc(C)cc1C`, the Potency was inactive: > 76.9 µM.
In the case of `CSc1ccc(C2C(C#N)=C(N)Oc3cc4c(cc32)OCO4)cc1` (configuration not stated), the Potency is reported as inactive: > 76.9 µM.
With `CCN(CC)C(NC(=O)c1ccccc1)C(=O)c1ccccc1` (configuration not stated) the Potency was inactive: > 76.9 µM.
For `CCn1c(CNc2ccccc2Cl)nnc1SCC(=O)NCc1ccccc1`, the Potency was inactive: > 76.9 µM.
For `CC1CCC(C(=O)NC(C(=O)N2CCC(N3CCCCC3)CC2)C(C)C)CC1` (configuration not stated), the Potency was inactive: > 76.9 µM.
For `CC(=O)Nc1ccc(S(=O)(=O)N2CCN(Cc3ccncc3)CC2)cc1`, the Potency was inactive: > 76.9 µM.
For `CN1C(=O)C2(C(C#N)=C(N)Oc3c2oc(CO)cc3=O)c2ccccc21` (configuration not stated), the Potency was inactive: > 76.9 µM.
With `COc1ccccc1OCCCn1c(=O)oc2ccc(C)cc21` the Potency was inactive: > 76.9 µM.
With `COc1ccccc1CNC(=O)CNC(=O)Cn1cnc2ccccc2c1=O` the Potency was inactive: > 76.9 µM.
With `Cc1ccccc1CSCC(=O)c1c(N)n(C)c(=O)n(C)c1=O` the Potency was inactive: > 76.9 µM.
For `COc1ccc(N2CCN(C(=O)CSc3ccccc3N)CC2)cc1`, the Potency was inactive: > 76.9 µM.
For `Cc1cccnc1N(C(=O)Nc1ccccc1)C1=NCC(C)(C)S1`, the Potency was inactive: > 76.9 µM.
With `O=C(NCC(=O)N(c1ccccc1F)C(C(=O)NCC1CCCO1)c1ccccc1)c1ccco1` (configuration not stated) the Potency was inactive: > 76.9 µM.
For `N#Cc1nc(-c2ccco2)oc1N1CCCC1`, the Potency was inactive: > 76.9 µM.
`COc1ccc(CCNC(=O)CN2C(=O)c3ccccc3S2(=O)=O)cc1` was tested, and the Potency was inactive: > 76.9 µM.
With `COc1ccc(-n2nc(C(=O)NCc3ccco3)c3c4ccccc4n(C)c3c2=O)cc1Cl` the Potency was inactive: > 76.9 µM.
In the case of `CSc1nc2ccccc2n1CC(=O)Nc1c(C)n(C)n(-c2ccccc2)c1=O`, the Potency is reported as inactive: > 76.9 µM.
In the case of `COc1ccc(OC)c(NC=C2C(=O)OC(C)(C)OC2=O)c1`, the Potency is reported as inactive: > 76.9 µM.
In the case of `COC(=O)c1ccccc1N1C(=O)C2C(C1=O)C1C=CC2C12CC2` (configuration not stated), the Potency is reported as inactive: > 76.9 µM.
With `Cn1c(=O)c2cc(S(=O)(=O)Nc3cccc(F)c3)ccc2n(C)c1=O` the Potency was inactive: > 76.9 µM.
In the case of `C=CCN1CC2CC3(COc4cc(C)cc(C)c4)C=CC2(O3)C1=O` (configuration not stated), the Potency is reported as inactive: > 76.9 µM.
With `COc1ccc(-n2c(=O)c3c4c(sc3n(CC(=O)NCc3ccco3)c2=O)CCC4)c(OC)c1` the Potency was inactive: > 76.9 µM.
`CCN1CCN(CCCNC(=O)C2c3ccccc3C(=O)N(C)C2c2ccc(OC)cc2)CC1` (configuration not stated) was tested, and the Potency was inactive: > 76.9 µM.
`Cn1c(=O)c2c(n(C)c1=O)=NC1(CCCCC1)N=2` was tested, and the Potency was inactive: > 76.9 µM.
`COc1ccccc1-c1cc(C(=O)Nc2c(C)n(C)n(-c3ccccc3)c2=O)no1` was tested, and the Potency was inactive: > 76.9 µM.
With `CCOC(=O)c1ccccc1NC(=O)CSc1nc2ccccc2o1` the Potency was inactive: > 76.9 µM.
`O=C(CCCSc1nc2ccccc2s1)NC1=NCCS1` was tested, and the Potency was “inactive”.
`CC(C)C(=O)NCCc1nc2ccccc2n1C` was tested, and the Potency was inactive: > 76.9 µM.
For `CCC(C)C(NC(=O)C1CCC(C)CC1)C(=O)NCc1cccnc1` (configuration not stated), the Potency was inactive: > 76.9 µM.
For `O=C1CN(C(=O)COC(=O)CCC(=O)c2ccc3c(c2)OCCO3)c2ccccc2N1`, the Potency was inactive: > 76.9 µM.
With `O=C(O)CSc1nnc(Cn2cnc3ccccc32)n1CCc1ccccc1` the Potency was inactive: > 76.9 µM.
For `CCOC(=O)CCc1c(C)nc2ncnn2c1C`, the Potency was inactive: > 76.9 µM.
`CC(=O)OCn1nnc2ccccc2c1=O` was tested, and the Potency was inactive: > 76.9 µM.
With `CSCCC(NS(=O)(=O)c1ccc(Cl)cc1)C(=O)OCC(=O)N1CCOCC1` (configuration not stated) the Potency was inactive: > 76.9 µM.
With `O=S(=O)(Nc1cccnc1)c1cccs1` the Potency was inactive: > 76.9 µM.
`O=C(Nc1nc(-c2ccc(Cl)s2)cs1)c1ccncc1` was tested, and the Potency was inactive: > 76.9 µM.
`COCc1c(C)cc(C)c(/C=N/O)c1C` was tested, and the Potency was inactive: > 76.9 µM.
For `C1CCC2(CC1)OCC1(CO2)COC2(CCCCC2)OC1`, the Potency was inactive: > 76.9 µM.
`CC(C)NS(=O)(=O)c1ccc(OCC(=O)Nc2ccc3c(c2)OCO3)c(Cl)c1` was tested, and the Potency was inactive: > 76.9 µM.
With `O=C(c1cccc(C(=O)N2CCN(c3ncccn3)CC2)c1)N1CCN(c2ncccn2)CC1` the Potency was inactive: > 76.9 µM.
`COc1ccc(NC(=O)c2c(OC)cccc2OC)c(OC)c1` was tested, and the Potency was inactive: > 76.9 µM.
`CCN(CC)C(=O)c1ccc(NS(=O)(=O)c2ccccc2)cc1` was tested, and the Potency was inactive: > 76.9 µM.
With `CCCN1C(=O)c2ccc(C(=O)Nc3cc(C)on3)cc2C1=O` the Potency was inactive: > 76.9 µM.
In the case of `CCCCCC(=O)Nc1ccc(S(=O)(=O)Nc2nccnc2OC)cc1`, the Potency is reported as inactive: > 76.9 µM.
`COc1ccccc1C(=O)N(CN1CCCC1=O)c1cccc(Cl)c1` was tested, and the Potency was inactive: > 76.9 µM.
In the case of `Cc1cc(C)nc(SCCC(=O)N(C)C)n1`, the Potency is reported as inactive: > 76.9 µM.
With `N=C1C(c2nc(-c3ccc(Cl)cc3)cs2)=C(O)CN1CCCN1CCOCC1` the Potency was inactive: > 76.9 µM.
For `Cc1c(C)n(Cc2ccccc2)c2ncnc(N)c12`, the Potency was inactive: > 76.9 µM.
For `O=C(CCC(=O)N(CC(=O)NC1CCCCC1)c1ccc2c(c1)OCO2)Nc1ccccn1`, the Potency was inactive: > 76.9 µM.
With `COc1cccc(-c2cc(C(F)(F)F)n3ncc(C(=O)O)c3n2)c1` the Potency was inactive: > 76.9 µM.
`NS(=O)(=O)c1ccc(NC(=O)CSc2nnc(-c3cnccn3)n2-c2ccccc2)cc1` was tested, and the Potency was inactive: > 76.9 µM.
`CC(=O)Nc1ccc(S(=O)(=O)Nc2nccc(C3Cc4ccccc4C(=O)O3)n2)cc1` (configuration not stated) was tested, and the Potency was inactive: > 76.9 µM.
For `COc1ccc(NC(=O)C2CCCN2c2ccc(OC)c(OC)c2)cc1OC` (configuration not stated), the Potency was inactive: > 76.9 µM.
For `O=c1[nH]cnc2c1oc1ccccc12`, the Potency was inactive: > 76.9 µM.
`C[N+](C)(C)C/C=C1/COCO1` was tested, and the Potency was inactive: > 76.9 µM.
`COC(=O)c1cn(NC(=O)c2cccnc2)c(=O)c2ccccc12` was tested, and the Potency was inactive: > 76.9 µM.
With `CCOC(=O)C1=C(c2ccccc2)NC(SCC(=O)NC2CCCCC2)=C(C#N)C1c1ccco1` (configuration not stated) the Potency was active: 7.7 µM.
In the case of `Cn1c(=O)c2c(nc(CN3CCOCC3)n2Cc2ccccc2)n(C)c1=O`, the Potency is reported as inactive: > 76.9 µM.
For `COC(=O)CCC(=O)Nc1sc2c(c1C#N)CCCC2`, the Potency was inactive: > 76.9 µM.
In the case of `CCCN1C(=O)C2(/C(=C(\O)c3ccc4c(c3)OCCO4)C(=O)C(=O)N2CCCOC)c2ccccc21` (configuration not stated), the Potency is reported as inactive: > 76.9 µM.
For `Cc1ccc(C(O)c2nc3ccccc3n2C(C)C)cc1` (configuration not stated), the Potency was inactive: > 76.9 µM.
In the case of `O=C(Cn1cnc2ccccc2c1=O)Nc1ccc2c(c1)CCC2`, the Potency is reported as inactive: > 76.9 µM.
`CCOc1cc(S(=O)(=O)NCc2ccco2)c(OCC)cc1-n1cnnn1` was tested, and the Potency was inactive: > 76.9 µM.
In the case of `Cc1cc(C)n2cc(CSCc3ccco3)nc2n1`, the Potency is reported as inactive: > 76.9 µM.
In the case of `Cc1ccc(C)n1NC(=O)c1ccc(Cl)cc1Cl`, the Potency is reported as inactive: > 76.9 µM.
For `COc1cc(CN2CCC(C(=O)NC3CCCC3)CC2)cc(OC)c1O`, the Potency was inactive: > 76.9 µM.
`C/C(N)=C(/C#N)C(=O)CSc1nc2cc(Cl)ccc2s1` was tested, and the Potency was inactive: > 76.9 µM.
For `COc1ccc(NC(=O)CSc2nnc(-c3ccccc3C)n2N)cc1`, the Potency was inactive: > 76.9 µM.
